Laboratory results: the RNAGym collection of RNA variant scans (doi:10.1093/nar/gkz1192)
Read counts are not given, so values of variants with three or more changes are uncertain.

B1: CPEB3 Ribozyme (parent)
chain: UAACAGGGGGCCACAGCAGAAGCGUUCACGUCGCAGCCCCUGUCAGAUUCUGGUGAAUCUGCGAAUUCUGCUGUAUAUCUC

Variants of: B1
Assay: self-cleavage, relative activity (ratio to wild type); higher = more cleavage; in vitro, sequencing
How it was run: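 After error-prone PCR and barcoding, CPEB3 ribozyme mutant libraries were transcribed with T7 RNA polymerase at 37°C for 5 hours, then given 15 min with DNase I before an EDTA stop, and they cleaved during both steps. Reverse transcription with template switching preceded Illumina sequencing. Relative activity divides a variant's cleaved/total read fraction by the unmutated ribozyme's. At least 5 reads were required per variant, and three batches were averaged.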

Variant	self-cleavage
A5G A15G A21U U26A U41C U43C U54A	0
A5G A20U C39G U41C U69A U80C	0.06
A5G A21G G53A U54G	0.7
A5G A18G G46A U51A U67C	0.08
A5G A18U G46A U69A	0.06
A5G A20G A21G U54G	0.13
A5G A18G U26A U31A U60C U66C	0.07
A5G A15C A21G U25C A45U	0.58
A5G A15U U26A A45G U60C G73A	0.57
A5G A18G C37U A45G U51A U74A	0.29
A5G A13U A47G U60A U67G U80C	0
A5G A18G A35G	0.79
A5G A13U U66C	0.26
A5G A18U A65U U69A A77U	0.2
A5G A13U U69A	0.48
A5G A20G U25C U51C A56G	0.27
A5G A13U A20G U43A U80C	0.81
A5G A21G A45G A65C	0.42
A5G A18G A20G U58C U60C U80A C81U	0.12
A5G A20G U31C U66C	0.04
A5G A15U A21G U60A	0.41
A5G A20U C29U	0.4
A5G A18U A35U U51C U54C	0.22
A5G A18U G19A U43C A47G A57G	0.13

Variant	self-cleavage
A5G A13U A64G U69A	0.6
A5G A28G A64G	0.52
A5G A20U U25C	0.5
A5G A21G C34G	0.53
A5G A20G U26C U43C G55U U69C	0.32
A5G A20G A21G	0.63
A5G A21G U43C U69C	0.22
A5G A21G U60A	0.14
A5G A18U C29U U54C A65U U67C U69A	0.12
A5G A20G A21U A45G A65G U78C	0.11
A5G A28G A45U	0.11
A5G A21G U41C A57U	0.24
A5G A28G A64G C71A	0.16
A5G A21G U43C A57U G70C	0.05
A5G A28G A57G	0.16
A5G A15U A45G U72C U80C	0.17
A5G A15U A35U U67A	0.1
A5G A13U C29A U48A U54A	0.1
A5G A15G A21G U26A A35U U41C A65C	0.08
A5G A18G U72C A75G	0.17
A5G A13U U49A C50A U76C	0.42
A5G A20U G30A U48C U49C	0.06
A5G A20G U41C U67C G70C	0.22
A5G A18G U60C U69C	0.34

Variant	self-cleavage
A5G A13U C29U A35G U80A	0.27
A5G A15U U26C A35G G70C U80A	0.16
A5G A15U A77G	0.82
A5G A15C U25C U72C	0.11
A5G A18G U31A G61C U67A	0.06
A5G A15G A45U U48C U67C	0.16
A5G A18U U48C U51C U67C	0.08
A5G A18U A20U C23A A35G A57G	0.42
A5G A18U C32U A56U	0.51
A5G A20G A64G	0.59
A5G A18G A57G U58A G63C G70U	0.03
A5G A13G U26C C44G U72C	0.09
A5G A21G A65G U74C	0.09
A5G A20C A28C U66C U80C	0.06
A5G A15U C40U C44A U67C	0.18
A5G A15U A20G U72A	0.49
A5G A15G U31A U41G U67A	0.5
A5G A20G U51A A64G	0.43
A5G A20G A35G	1.15
A5G A15U C50G	0.24
A5G A18U U72A	0.36
A5G A20U U49C U54C U80A	0.58
A5G A28G A35U U58A U72G	0.11
A5G A28G C29G	0.09

Variant	self-cleavage
A5G A13U A18U A20U A28G U66C	0.29
A5G A15G G36A C62G U76C	0.42
A5G A21G A35U U66C	0.25
A5G A13U U25C A77U	0.07
A5G A15G A35U U66C C68U U80A	0.28
A5G A18U C39A U60C A75U C81G	0.07
A5G A18U U26A	0.36
A5G A18G U25G A28U U41A U49C U51C	0.13
A5G A13U U25C A57G U58G	0.14
A5G A18U A20G A28U C50A U66C	0.07
A5G A20G U26C U72C U74A U80A	0.53
A5G A18G U54A A56G U74C	0.56
A5G A20U A35U C44A	0.29
A5G A15G U26C U72A	0.07
A5G A13U A28U U31A U49C A65C U66A	0.07
A5G A20U C38U A47U U69G U72A	0.15
A5G A15G A20G A28G A45G	0.44
A5G A18U U69C	0.22
A5G A15G C38G A75G	0.19
A5G A13U C37U	0.5
A5G A13U A47G U67C U69A U78C	0.32
A5G A20G U43C U58C U60C U67A	0.2
A5G A15U U26C	0.2
A5G A20U G46A C59U	0.39

Variant	self-cleavage
A5G A18C G30C	0.08
A5G A13G U41C U43C	0.14
A5G A18G A35U C38U	0.12
A5G A20G A35U U72A	0.04
A5G A28G A45G U48A C59A U67C	0.26
A5G A15U A35G U51C C62U A64G	0.25
A5G A21G U58A U69A	0.07
A5G A13G U54A U58C	0.71
A5G A18G U43C U51A	0.59
A5G A21G A28U C29U A47G U54C U76A	0.08
A5G A21G U60C U69C	0.42
A5G A21G A45G A64G	0.05
A5G A15G A21G C37U U78C	0.79
A5G A20G C32A U80A	0.06
A5G A15G U25C U69C	0.51
A5G A28G U41A U76A	0.69
A5G A18U A20U C37U A65G	0.1
A5G A20U A28G U69C U80C C81A	0.07
A5G A15G U31C G33A C37U U41A	0.23
A5G A15G A21G U48C U54C	0
A5G A13G U51A U54A A75U U78C	0.51
A5G A20G A56G	0.37
A5G A20G A75G U78A	0.66
A5G A21G U26C C27G	0.41

Variant	self-cleavage
A5G A18U G24U A35G U43C U60C U74C	0.07
A5G A21G C38A U60A	0.38
A5G A21G A56G U58C U69A	0.1
A5G A20G A21U A64G U66C	0.18
A5G A18C U41A U54C A65G U67G	0.26
A5G A21G U41A A56G U67A G73A	0.32
A5G A13U U49A U67A U80C	0.07
A5G A20G A28U U41C A47G U60A	0.49
A5G A18C U25C A65G U80C	0.36
A5G A15G U25C G33A U78C	0.13
A5G A13U C39A U41A	0.47
A5G A15G U76A	0.61
A5G A18G U31C U54A U72A A75U U76C	0.09
A5G A13G U66C	0.1
A5G A20G U31A C62U U80C	0.1
A5G A28G A47G U72A A77U	0.06
A5G A15G A28G U41C U43A U49C U66C	0.31
A5G A13U A21U U74A	0.44
A5G A15G U49C A64U A75G	0.35
A5G A15G A20U U54C A57U	0.2
A5G A20U U60C	0.19
A5G A20U C50A	0.39
A5G A13G U43C U69A	0.08
A5G A20G U58A U69A	0.16

Variant	self-cleavage
A5G A18C U69A	0.35
A5G A15G U31G U78G	0.8
A5G A13G U54C U80C	0.32
A5G A18G G42A A75G	0.12
A5G A21G U26C U48C C59U	0.39
A5G A20G C23A	0.44
A5G A18G A21G	0.39
A5G A20U C29U A35G A64G U67C U72A	0.08
A5G A28G U41C	0.41
A5G A15G U26A A28G U49C	0.35
A5G A13U A21G G36C U51C U54C	0.13
A5G A13G U26C U72C	0.19
A5G A20C U31C U76A U80C	0.12
A5G A15U U67C	0.06
A5G A20U G63U	0.07
A5G A13G U26C U60C U67C A77G	0.12
A5G A20G A35U U60C A64G U69C	0.05
A5G A18G U26C	0.53
A5G A18G U26A	0.14
A5G A21G U31A A47U C50G G61A A65U	0.1
A5G A15G A18G U78C	0.09
A5G A13U U25C A35U U41C U51A	0.09
A5G A28G G30A	0.11
